Measurements: patent publication US20120141504A1 (MAYO FOUNDATION FOR MEDICAL EDUCATION AND RESEARCH, published 2012)

Target: T1, human B7-H3.1 expressed on 293 cells transfected with pcDNA/B7-H3 (human, UniProt Q5ZPR3 29-534)
T1 sequence: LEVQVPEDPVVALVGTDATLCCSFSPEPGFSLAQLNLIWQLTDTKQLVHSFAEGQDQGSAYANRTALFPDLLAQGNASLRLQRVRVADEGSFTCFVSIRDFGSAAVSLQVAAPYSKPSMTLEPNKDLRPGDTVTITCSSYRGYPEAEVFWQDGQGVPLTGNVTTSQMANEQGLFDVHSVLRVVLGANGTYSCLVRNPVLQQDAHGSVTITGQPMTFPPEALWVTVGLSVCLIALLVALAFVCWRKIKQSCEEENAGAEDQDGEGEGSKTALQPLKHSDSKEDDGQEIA
Assay: flow cytometry on transfected 293 cells

binding result: no binding (tested: 5 µg/sample)
B1: CTLA4Ig fusion protein (Fc fusion)
chain: not shown
notes: extracellular domain; Described as an analogous fusion protein prepared by a method similar to that for B7-H3Ig (extracellular domain fused to mouse IgG2a Fc); not shown: Fc constant region of mouse IgG2a
